Test results as given in PubChem BioAssay AID1508624 (National Center for Advancing Translational Sciences (NCATS), 2021).
Hit rate of the full screen: of about 48,000 compounds, about 120 (0.25%) were called active. Roughly 4% stayed inconclusive and do not appear here. Calls come from the whole dose curve; as a rule, active = well fitted activation curve with a large enough effect; inconclusive = small, poorly fitted or top-dose-only effect, or another doubt; inactive = no such curve, though single readings can be large or run the other way. The list shows a part of the results.

Assay: Primary qHTS for Identification of Small Molecule Activators of Huntingtin-Antisense Promoter Activity; note: nearly all actives have a fitted effect of over 55% in size
Conditions: HEK293 HTT-AS promoter firefly luciferase reporter, 24 h; series mostly up to 57.5 µM; activity change, positive = activation: at the top concentration
How it was run: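 Firefly luciferase signal from promoter-reporter HEK293 cells was scaled between vehicle (0%) and zero RLU (-100%). Compounds were tested at final concentrations of up to 57.5 uM over 24 h at 37 degrees C. PTC124 at 50 uM final served as control inhibitor.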

Activity change, positive = activation, inactive:
CCN(CC)CCN(C(=O)c1ccco1)c1nc2cc(C)cc(C)c2s1 -13.7%, CCOc1cc(-c2ccc(OC(=O)c3ccc(C)cc3)c(OC)c2)cc(=O)c2c(C)oc(C)c12 -37.1%, Nc1c(-c2nc(-c3ccccc3)no2)nnn1CC(=O)Nc1cccc(F)c1 7.75%, CC(=O)c1ccc(NC(=O)CN(C)S(=O)(=O)c2cc3c(cc2Cl)NC(=O)CO3)cc1 -18.4%, CCCN(CCC)S(=O)(=O)c1ccc(C(=O)Nc2cccc(-c3nc4ccccc4[nH]3)c2)cc1 -47.9%, CCOC(=O)c1ccc(Nc2c(-c3cccc(O)c3)nc3nc[nH]n23)cc1 -49.9%, N#Cc1c(-n2ncnc2-c2ccccc2C(F)(F)F)sc2c1CCCCC2 -53%, Cc1ccc(NCc2cccn2-c2nnc(N3CCC(C(=O)NCCC(C)C)CC3)s2)cc1 -45.3%, CCc1ccc(NC(=O)Nc2nnc(N(C)C3CCCCC3)s2)cc1 -1.8%, O=C(Nc1cccc(C(F)(F)F)c1)c1ccc2snnc2c1 -13.8%, CC(=O)c1ccc(NC(=O)Cn2c(=O)nc(-c3ccccc3)c3cc(Cl)ccc32)cc1 -4.67%, Cc1cccc(N2CCN(C(=O)C3CCN(c4ncnc5c4nc4n5CCCCC4)CC3)CC2)c1C -34.4%, CCOC(=O)C1CCCN(c2ncnc3c2nnn3C)C1 (configuration not stated) -8.44%, COc1cccc(NC(=O)c2oc3ccccc3c2NC(=O)c2cc3ccccc3o2)c1 -9.99%, COCCn1c(SCC(=O)c2c[nH]c3ccccc23)nc2cc(C(=O)NC(C)C)ccc2c1=O -19.6%, COCCCNC(=O)c1ccc(C)c(-n2c(C)nc3cccnc32)c1 -1.22%, Cc1nc2ccn(Cc3cccnc3)c(=O)c2cc1C(=O)Nc1ccc(F)cc1F -0.41%, O=S(=O)(Nc1ccc(F)cc1F)c1ccc(-n2cccn2)cc1 -31.1%, CCOc1ccc(-c2nnc(SCC(=O)c3ccc(Br)cc3)n2-c2ccccc2)cc1 0.771%, CCOc1ccc(CCNC(=O)c2cc3c(s2)-c2c(C)cccc2OC3)cc1 -8.48%, O=C(CN1C(=O)CCc2cc(S(=O)(=O)N3CCOCC3)ccc21)NCc1ccc(Cl)cc1 -17.4%, COc1cc(NC(=O)NCCN2CCN(c3ccccc3)CC2)cc(OC)c1OC -7.08%, COc1ccc(C(=O)NCCn2cc(SC(C)c3ccccc3)c3ccccc32)cc1OC (configuration not stated) -51.4%, Cc1ccc(N(C)C(=O)CCS(=O)(=O)c2cc3c(cc2Cl)NC(=O)CO3)cc1 -12.2%, Cc1cccc(NC(=O)CSc2nc3c(sc4ccccc43)c(=O)n2CCCC(=O)NC2CCCC2)c1 -2.01%, Cc1cccc(C(=O)Nc2ccc(S(=O)(=O)N(Cc3ccccc3)c3ccccc3)cc2)c1 20.4% [at 11.5 µM, percent change from vehicle, -100% = no light], C[C@@H]1CC=CC=CC=CC=C[C@@H](O[C@@H]2O[C@H](C)[C@@H](O)[C@H](N)[C@H]2O)C[C@@H]2O[C@](O)(C[C@@H](O)C[C@@H]3O[C@@H]3C=CC(=O)O1)C[C@H](O)[C@@H]2C(=O)O -93.7%, Cc1ccc(C2=NC(c3ccccc3)=Nc3ccc(Cl)cc3N2)cc1 26.6%, O=C1[C@H](Cc2ccc(O)cc2)N2C(=O)CCN(C(=O)NCc3ccccc3)[C@H]2CN1Cc1cccc2ccccc12 -40.4%, COC(=O)c1cc2oc3ccccc3c2n1Cc1c(C)cc(C)cc1C -13.4%, COCCCNC(=O)CSc1nc(-c2ccc(OC)c(OC)c2)[nH]c1-c1ccc(F)cc1 -15.5%, Cc1cc(C)c2c(=O)cc(C(=O)NCc3ccc(S(N)(=O)=O)cc3)oc2c1 -0.251%, CCc1ccc(NC(=O)CCc2nnc3n(C)c(=O)c4sccc4n23)cc1 -10%, Cc1cc(C)cc(NC(=O)Cn2c(=O)n(Cc3ccco3)c(=O)c3oc4ccccc4c32)c1 -20.7%, Cc1nn2c(=O)cc(COC(=O)COc3ccc(F)cc3)nc2s1 2.55%, COc1cc2ccccc2cc1C(=O)Nc1cccc(-c2nc3cc(C)ccc3o2)c1C -9.69%, Cc1cccc(NC(=O)C2CCCN(S(=O)(=O)c3ccc(Br)s3)C2)c1 (configuration not stated) -10.9%, Cc1nc2cccnc2n1-c1cccc(C(=O)NCCc2ccc(S(N)(=O)=O)cc2)c1 -4.44%, Cc1ccc(NC(=O)CSc2nnc(-c3ccc(Br)cc3)o2)c(C)c1 -4.27%, Cc1ccc(OCC(=O)Nc2ccc3nc(SCCOc4ccccc4)sc3c2)cc1 -15.7%, CCOC(=O)Cn1c(=O)oc2cc(S(=O)(=O)N3CCC(C(=O)OCC)CC3)ccc21 -21.4%, COc1ccc(NC(=O)Cn2nnc3sc4c(c3c2=O)CCCC4)cc1 -18.4%, Cc1ccc(NC(=O)CN2C(=O)COc3ccc(S(=O)(=O)Nc4ccccc4)cc32)c(C)c1 -8.76%, COc1ccc(CNC(=O)c2ccc3nc(C(C)C)oc3c2)cc1OC -34.7%, Cc1cc(C)c(NC(=O)CSc2nc3ccncc3[nH]2)c(C)c1 -23.5%, CCOC(=O)c1oc2ccc(S(=O)(=O)n3nc(-c4ccc(C)cc4)cc3N)cc2c1C -14.6%, COc1ccc(NC(=O)C2CCN(S(=O)(=O)c3cccc(-c4noc(C)n4)c3)CC2)cc1OC -26.9%, CCOCCn1ccc2c(OCC(=O)Nc3ccc(C(N)=O)cc3)cccc2c1=O -24.8%, COc1cccc2sc(N(Cc3cccnc3)C(=O)c3ccc4c(c3)OCCO4)nc12 -14%, COc1ccc(C2NC(=O)N(C)C3=C2C(=O)N(c2ccc(Br)cc2)C3)cc1 (configuration not stated) -18.8%, CCCc1nn2c(=O)cc(COC(=O)c3ccc(NC(=O)COc4ccc(F)cc4)cc3)nc2s1 -14.4%, CN(C)c1ccc(CNC(=O)C2CCN(c3nc4ccccc4[nH]3)CC2)cc1 -17.7%, Cc1cc(S(=O)(=O)N2CCN(Cc3noc(CCC(=O)N4CCCCC4)n3)CC2)ccc1F -12.8%, COC(=O)c1cc2occc2n1Cc1nc(-c2ccccc2)oc1C -5.58%, N#Cc1ccc(-c2cccs2)nc1SCC(=O)Nc1cccc(C(F)(F)F)c1 3.24%, CCCCCn1c(=O)[nH]c2cc(C(=O)Nc3ccc(F)c(F)c3)ccc2c1=O -4.46%, Cc1cc(SCC(=O)NCc2ccc(Cl)cc2)nc(=O)[nH]1 -16.4%, CCN(CC)CCOC(=O)c1ccc(NC(=O)c2cc3c(=O)n(CC)c4ccccc4c3s2)cc1 -10.7%, Cc1ccc(S(=O)(=O)N2CCC(C(=O)NCc3ccccc3Cl)CC2)cc1 -18.1%, Cc1ccccc1C(=O)Nc1cccc(OCc2cc(=O)n3c(C)csc3n2)c1 7.89%, CCN1CCN(Cc2c(O)ccc3c(C)c(-c4ccc(OC)cc4)c(=O)oc23)CC1 -22.7%, COc1ccccc1C1c2c(-c3ccc(Cl)cc3)n[nH]c2C(=O)N1c1ccc(C)cc1 (configuration not stated) -34.8%, Cc1cccc(NC(=O)c2cc(S(=O)(=O)NCCc3ccccc3)ccc2F)c1C -22.2%, COc1ccc(NC(=O)C2=CC(c3ccco3)=NS(=O)(=O)N2C)cc1 -6.75%, Cc1ccccc1S(=O)(=O)Cc1ccc(C(=O)N2CCN(c3cccc(Cl)c3)CC2)o1 -53.8%, Oc1cc(O)cc(C=Cc2ccc(O)c(O)c2)c1 9.07%, Cc1ccc(C)c(NC(=O)CN2CCSc3ccc(S(=O)(=O)N4CCCC4)cc32)c1 -26.9%, COc1ccccc1N1CCN(c2ncnc3c2nnn3C)CC1 -1.92%, COc1ccc(-c2c(C#N)c(SCC(=O)Nc3ccccc3C)nc(C)c2C(=O)Nc2ccc(Cl)cc2)cc1 -16.9%, CN(c1ccccc1)S(=O)(=O)c1ccc(NC(=O)c2nc(S(C)(=O)=O)ncc2Cl)cc1 -94.6%, Cc1cc(O)c(C(c2cccc(F)c2)N2CCN(c3ccccc3)CC2)c(=O)n1Cc1ccco1 (configuration not stated) 4.44%, COC(=O)c1c(NC(=O)CCCOc2cccc(C)c2)sc2c1CCC2 1.92%, Cc1cc2c(cc1S(N)(=O)=O)S(=O)(=O)CCC2 -3.13%, C[C@H]1O[C@H](O[C@H]2[C@H](O)[C@@H](O)[C@@H](O[C@H]3[C@H](O)[C@@H](O)[C@H](O)O[C@@H]3CO)O[C@@H]2CO)[C@H](O)[C@@H](O)[C@@H]1N[C@H]1C=C(CO)[C@@H](O)[C@H](O)[C@H]1O -2.73%, Cc1cc(C)n(-c2nnc(Nc3ccc(C)c(C)c3)c3ccccc23)n1 -22.3%, COc1ccc(NC(=O)c2sc3nc4c(cc3c2N)CN(Cc2ccccc2)CC4)c(OC)c1 -21.5%, Cc1ccc(C)c(CN2C(=O)c3ccccc3S(=O)(=O)c3ccc(C(=O)OCC4CCCO4)cc32)c1 (configuration not stated) -22.8%, COc1ccc(NC(=O)Cn2c(SCc3ccc(C)cc3)nc3cccnc32)cc1OC -3.21%, COC(=O)c1cc(Cl)ccc1OC -3.7%, Cc1cccc(NC(=O)Cn2cc(C(=O)C3CCCCC3)c3ccccc32)c1 -25.8%, COc1ccc(Cn2c(CCC(=O)NCc3ccc(Cl)cc3)nc3cccnc32)cc1 -10.9%, CCOC(=O)COc1ccc(C2C(C(=O)OC)=C(C)NC3=C2C(=O)c2ccccc23)cc1Cl (configuration not stated) -8.76%, COc1cccc(CNC(=O)c2cnc3sc(N4CCCC4)nn3c2=O)c1OC -5.9%, CCOC(=O)CC(NC(=O)CCc1c(C)nc2c(-c3ccccc3)c(C)nn2c1C)c1ccc(OC(C)C)cc1 (configuration not stated) -41.5%, CSc1ccc(CCNC(=O)NCc2noc3ccccc23)cc1 -22.5%, CCOC(=O)c1cc(S(=O)(=O)Nc2cc(OC)ccc2OC)[nH]n1 -29.6%, Cc1ccc(C(=O)NCC(c2ccc3c(c2)OCO3)N2CCOCC2)cc1C (configuration not stated) -18.4%, COc1ccc(CNc2nc(-c3ccco3)nn2S(=O)(=O)c2ccc(Cl)cc2)cc1OC -14.4%, O=C(CSc1cn(CC(=O)N2CCCC2)c2ccccc12)Nc1ccc(Cl)cc1 -17.9%, COc1ccc(Cl)cc1NC(=O)c1cc2c(=O)n3ccccc3nc2s1 -2.12%, O=C(CC1N=C2c3ccccc3N=C(SCc3ccc(F)cc3)N2C1=O)NCc1ccc2c(c1)OCO2 (configuration not stated) -16.2%, Cc1ccc(NC(=O)CSc2nnc3ccc4ccccc4n23)cc1 -16.7%
